From the BET-seq Pho4 binding data (Le et al. 2018)
This is one part of the list. These are noisy estimates, calculated here from bound and input reads.

What follows are sequences tested against T1, Pho4 (S. cerevisiae) (UniProt P07270) (assay: relative binding free energy (BET-seq); higher = weaker binding). Conditions: reference: library average.
T1 sequence: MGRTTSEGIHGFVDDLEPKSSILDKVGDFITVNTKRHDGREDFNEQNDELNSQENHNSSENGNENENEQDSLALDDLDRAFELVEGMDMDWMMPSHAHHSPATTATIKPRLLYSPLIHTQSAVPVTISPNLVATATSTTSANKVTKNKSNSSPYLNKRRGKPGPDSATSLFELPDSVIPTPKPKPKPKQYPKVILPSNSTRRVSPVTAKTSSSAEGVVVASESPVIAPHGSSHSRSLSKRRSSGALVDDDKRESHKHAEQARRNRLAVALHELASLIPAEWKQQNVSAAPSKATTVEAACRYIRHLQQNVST

Sequence	relative binding free energy [kcal/mol]
GAAGTCACGTGGTGTG	0.04
TTATACACGTGGTCGT	-0.05
ACGTACACGTGTGGTG	-0.02
CGTAACACGTGGGTTA	-0.16
CTGGACACGTGAAGTG	0.41
ATAATCACGTGTTGCT	0.05
GAGTACACGTGAATTG	0.34
CTTTGCACGTGAGGTC	0.24
TGTAGCACGTGCTTGT	-0.11
GGCGTCACGTGGCGTT	0
TTGACCACGTGGAGTT	-0.04
ATTGACACGTGTCGGG	0.1
GTGATCACGTGGGGGG	0.01
AAAGGCACGTGGGGCA	-0.05
GGACGCACGTGGGCTG	-0.29
TTGCTCACGTGGTAGG	0.32
TGCTGCACGTGAGGGT	0.28
GATGGCACGTGCGCGG	-0.13
TGGATCACGTGGAGGA	-0.01
GTGAACACGTGTGTTA	0.07
TATGTCACGTGTCAGA	0.31
TAATTCACGTGCTAGT	0.28
TGTCTCACGTGAATTT	0.4
AATAACACGTGTTAGT	-0.09
CGGAGCACGTGGTGTC	-0.14

Sequence	relative binding free energy [kcal/mol]
ATGAGCACGTGGGAAA	-0.06
TAATGCACGTGATTGG	0.11
TTATGCACGTGCTGGG	0
ACTGTCACGTGAGGGT	0.23
TTTTCCACGTGGGGAA	-0.01
GGGGTCACGTGGTCAC	0.07
TAGGCCACGTGTGAGT	-0.21
AGACTCACGTGTTAGT	0.24
TAGGTCACGTGGAAAT	0.04
CGCTGCACGTGGGAGG	-0.11
TTTACCACGTGTATAT	0.04
TTTGACACGTGAGAAG	0.15
CGTTGCACGTGTATTG	0.02
TAGTACACGTGGTTAG	-0.08
GTATACACGTGAAGGT	0.34
TAGTTCACGTGTTGCA	0.34
TTTAGCACGTGGGACA	-0.21
TCAGGCACGTGAGATT	0.27
TATGTCACGTGTAAAG	0.21
TACGGCACGTGCAGGG	-0.12
GCATGCACGTGGGGAG	-0.23
AAGTGCACGTGTAGGT	-0.1
GCGGTCACGTGGAGGC	0.01
CTGGACACGTGGTTGA	0.05
TGGGCCACGTGTGTGG	-0.05

Sequence	relative binding free energy [kcal/mol]
CGTTGCACGTGTAGAT	0.17
ATTGGCACGTGTTCAG	-0.17
TATGACACGTGGTCAT	-0.13
GGGTACACGTGAGTGG	0.3
GTCGGCACGTGCTAGG	-0.03
GGGCTCACGTGCGGGC	0.25
GTTAACACGTGAGAGT	0.16
GGCTTCACGTGAAAGT	0.4
ATGGACACGTGTAGTG	-0.11
TGCAACACGTGATGGC	0.3
AGGGTCACGTGCAATG	0.09
ATTGCCACGTGGTATT	0.01
ACTGGCACGTGGGTGT	-0.2
AGGAGCACGTGTTGGC	-0.08
TTGGACACGTGTGGGT	0.13
GGTAACACGTGGAGTT	0.05
ATTGACACGTGTTTGG	0.13
AGGGGCACGTGAGAAT	0.09
AGTTTCACGTGAAGAG	0.24
GGTCTCACGTGGTAAT	0.3
CATATCACGTGGAGTT	0.3
GTATTCACGTGTTGTT	0.25
ACGTGCACGTGTAAGT	-0.08
ATGGGCACGTGAGGGC	0.11
AGGGACACGTGGCTTG	-0.07

Sequence	relative binding free energy [kcal/mol]
GAGATCACGTGTGGCT	0.29
TGTGACACGTGGCTTT	-0.11
GTTTGCACGTGGCGCT	-0.14
TGGATCACGTGTGGCG	0.13
GTTAGCACGTGTTGGC	0.03
GGAGGCACGTGCGGAG	-0.1
GTTATCACGTGTTTTG	0.3
GAAGTCACGTGGGAGT	0.08
TTTGACACGTGATTCT	0.14
CGATACACGTGGAGGT	-0.02
TTGTTCACGTGAGGCG	0.39
ATTATCACGTGTTTTC	0.3
CGGGGCACGTGGTAGC	-0.23
TAGTTCACGTGTCTGG	0.18
ATGGGCACGTGAGGAG	0.1
GCGCTCACGTGGGTAG	0.08
CATGACACGTGGGTTG	-0.1
GGTGTCACGTGTATTG	0.16
GTTATCACGTGTGGCG	-0.02
TCGTGCACGTGGAAAG	0.09
ATGGGCACGTGCGGAT	-0.11
GTGTACACGTGGTCGG	0.02
GTTTCCACGTGTGGCT	0.35
TTTGGCACGTGTTTTC	0.1
GGTGTCACGTGAAAGG	0.39

Sequence	relative binding free energy [kcal/mol]
ACCAGCACGTGGGGTG	-0.23
GTACTCACGTGTGGGG	0.34
GATAACACGTGTGGCT	0.24
AATATCACGTGATGCT	0.23
TAAGGCACGTGAAGCG	0.23
TAGAGCACGTGGGTTC	-0.23
AATTTCACGTGGCGAT	0.46
TGTATCACGTGAGTTA	0.3
GCATGCACGTGAGTGG	0.13
TCGGTCACGTGGACGG	0.29
GTTGGCACGTGATTAC	0.13
GTGTTCACGTGTTGTT	0.26
TAGTTCACGTGCTAAG	0.34
GTAGTCACGTGCGATT	0.17
ATAGCCACGTGTGAGG	-0.01
GTGGACACGTGTATTT	0.17
GAGAGCACGTGTGGTA	-0.05
ATCGTCACGTGTGCTT	0.2
TTGGCCACGTGTTATT	0
TACGTCACGTGAGTAT	0.28
CAGGGCACGTGATGAG	-0.05
TTGAACACGTGAATGT	0.31
TCGTTCACGTGGGGAC	0.1
ATTGTCACGTGCTTGG	-0.09
AGTAGCACGTGTATCT	-0.05

Sequence	relative binding free energy [kcal/mol]
TAGTTCACGTGGATTT	0.23
ACTGACACGTGGTAGG	-0.18
TAAATCACGTGGGATT	-0.05
TTTAGCACGTGTTTCT	-0.14
GCTGGCACGTGGTCGG	-0.27
GACGTCACGTGGGTTA	0.04
TATTACACGTGGACGT	0.02
ATTATCACGTGGGTAG	0.06
AGATGCACGTGTTGCG	-0.05
GGGCTCACGTGGGATG	0.27
GAGGTCACGTGGGTTT	0.17
TGTTACACGTGTCGTA	0.06
TTGTTCACGTGATGTC	0.45
GGAGGCACGTGCATTG	-0.07
TGTCCCACGTGAGGTG	-0.01
TGCAACACGTGGGTAT	-0.12
TATGTCACGTGATGTT	0.19
CTTGACACGTGTATTT	-0.07
ACAATCACGTGTAGGT	0.32
TTGTTCACGTGTGACT	0.32
ATGGGCACGTGGTCGG	-0.21
